# Laboratory results from PubChem BioAssay AID2675 (National Center for Advancing Translational Sciences (NCATS), 2010).
# Several values for one entry are separate records, joined by “and”; a condition that tells them apart may be missing. Identical values can stand only once. The whole screen tested about 280,000 compounds, of which about 100 (0.036%) were called active. Inconclusive results, whose numbers are uncertain, are shown with a selection of clear calls. Calls come from the whole dose curve; as a rule, active = well fitted inhibition curve with a large enough effect in the signal ratio, with a control signal flat (not every such curve was filed as active); inconclusive = small, poorly fitted or top-dose-only effect, or effect the other way, or a change in a side signal; inactive = no such curve, though single readings can be large or run the other way; the % refers to the signal ratio. Potencies of inconclusive entries are doubtful fits and often do not repeat. A note “side channel” means that the fit belongs to a control or component signal, not to the main read-out.
# Target: Muscleblind-like protein 1 (Homo sapiens) (UniProt Q9NR56)
# Assay: qHTS Assay for Inhibitors of MBNL1-poly(CUG) RNA binding
# Settings: TR-FRET MBNL1-His/biotin-(CUG)12 binding, 665/545 ratio; series mostly up to 57.5 µM
# In short: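 Compound titration spanned 92 nM–58 uM against the MBNL1-His/biotin-(CUG)12 complex. After 60 min at room temperature with 5 nM streptavidin-XL665 and 0.055 ng/ul terbium anti-His, ratiometric 665/545 nm emission (Ex 340 nm) normalized to controls.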
# Potency is the fitted concentration of half-maximal effect; tags give direction and shape of the fitted curve or compound fluorescence and quenching.
# Sequence of UniProt Q9NR56 (Q9NR56 whole entry, looked up): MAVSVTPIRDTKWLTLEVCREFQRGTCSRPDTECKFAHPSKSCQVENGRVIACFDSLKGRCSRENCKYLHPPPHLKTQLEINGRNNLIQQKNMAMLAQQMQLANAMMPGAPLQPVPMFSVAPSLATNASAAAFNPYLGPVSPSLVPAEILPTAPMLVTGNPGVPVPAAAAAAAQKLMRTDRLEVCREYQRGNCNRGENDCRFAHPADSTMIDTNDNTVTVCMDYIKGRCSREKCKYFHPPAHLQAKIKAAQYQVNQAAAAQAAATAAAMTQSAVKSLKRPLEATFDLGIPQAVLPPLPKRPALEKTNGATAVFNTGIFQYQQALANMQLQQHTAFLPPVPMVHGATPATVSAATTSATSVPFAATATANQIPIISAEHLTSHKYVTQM
row,SMILES,Potency
1,CS(=O)(=O)Nc1ccc(C2=NN(C(=O)CCCC(=O)O)C(c3cccs3)C2)cc1 (stereo not given),"inconclusive: 35.5 µM [quencher, side channel, single point]"
2,Cc1ccnc2c(N3C(=O)C4C5C=CC(C5)C4(C)C3=O)cccc12 (stereo not given),inactive
3,CCOc1ccccc1N1CCN(CC(=O)NC(C)c2ccccc2)CC1 (stereo not given),inactive
4,Cc1ccc(-n2nc(C(=O)O)c(C)c(C#N)c2=O)cc1Cl,"inconclusive: 10 µM [quencher, side channel, partial curve]"
5,Cc1ccc(C(=O)Sc2cccccc2=O)cc1,inactive
6,CC(O)c1nc2ccccc2n1Cc1ccc([N+](=O)[O-])cc1 (stereo not given),"inconclusive: 20 µM [quencher, side channel, partial curve]"
7,COc1ccc(/C=C/C(=O)Nc2ccccc2C(=O)O)cc1OC,"inconclusive: 20 µM [quencher, side channel, partial curve] and inconclusive: 14.1 µM [quencher, side channel, partial curve] and inconclusive: 22.4 µM [quencher, side channel, partial curve]"
8,Cc1c(/C(O)=C2/C(=O)C(=O)N(Cc3cccnc3)C2c2ccccn2)cnn1-c1ccccc1 (stereo not given),"inconclusive: 14.1 µM [quencher, side channel, partial curve]"
9,COC(=O)c1c(NC(=O)c2cccc([N+](=O)[O-])c2)sc(C(N)=O)c1C,"inconclusive: 2.51 µM [quencher, side channel, full curve, poor fit]"
10,Cc1cc(C)c(C(=O)COC(=O)c2ccc([N+](=O)[O-])o2)cc1C,"inconclusive: 15.8 µM [quencher, side channel, partial curve]"
11,O=C1[C@@H]2Cc3c([nH]c4ccccc34)C(c3ccc([N+](=O)[O-])cc3)N2C(=O)CN1C1CC1 (stereo not given in full),"inconclusive: 25.1 µM [quencher, single point]"
12,O=C(CSc1nnc(Cn2c(=O)sc3ccccc32)n1-c1ccccc1)NCC1CCCO1 (stereo not given),"inconclusive: 79.4 µM [inhibitor, single point]"
13,S=C(Nc1ccccc1)Nc1cc(Cl)ccc1Oc1ccccc1,"inconclusive: 25.1 µM [fluorescent, side channel, single point]"
14,Cc1ccnc(Nc2nc(-c3ccc(O)cc3)cs2)c1,inactive
15,CCNc1nc(NCC)n2c(SCC(=O)Nc3ccc(C(F)(F)F)cc3[N+](=O)[O-])nnc2n1,"inconclusive: 5.62 µM [quencher, side channel, full curve]"
